From the supplement of paper PMC10369915
The list shows a part of the results. No stated cut-off is given here; in the data, active = 3.2 or more and inactive = the rest. Most of these values are background signal.

B1: HLA-B_Y137_H137Y (peptide)
chain: RLLRGYDQYAY
B2: HLA-C_Y137_S140F (peptide)
chain: RLLRGYDQFAY
B3: HLA-C_Y137_YF (peptide)
chain: RLLRGYDQSAF
B4: HLA-C_Y183_L180W (peptide)
chain: EQWRAYLEGTC
B5: HLA-C_Y31_A35S (peptide)
chain: SHSMRYFDTSV
B6: HLA-DPB1_Y57_E62Q (peptide)
chain: RFLERYIYNRQ
B7: HLA-DPB1_Y57_YF (peptide)
chain: RFLERYIFNRE
B8: HLA-DPB1_Y59_F64Y (peptide)
chain: LERYIYNREEY
B9: HLA-DPB1_Y59_F64Y_YF (peptide)
chain: LERFIYNREEF
B10: HLA-DPB1_Y59_R61P (peptide)
chain: LERYIYNPEEF
B11: HLA-DQB1_Y62_V59L (peptide)
chain: RYLTRYIYNRE
B12: HLA-DQB1_Y62_Y62H (peptide)
chain: RYVTRHIYNRE
B13: HLA-DQB1_Y62_Y62S (peptide)
chain: RYVTRSIYNRE
B14: HLA-DRB1_Y107 (peptide)
chain: AAVDTYCRHNY
B15: HLA-DRB1_Y107_A103E (peptide)
chain: AEVDTYCRHNY
B16: HLA-DRB1_Y107_A103L (peptide)
chain: ALVDTYCRHNY
B17: HLA-DRB1_Y107_A103R (peptide)
chain: ARVDTYCRHNY
B18: HLA-DRB1_Y107_A103R_YF (peptide)
chain: ARVDTYCRHNF
B19: HLA-DRB1_Y107_Y107V (peptide)
chain: AAVDTVCRHNY

Molecular target: SHP2 C-SH2 domain E139D
Assay: enrichment score (SH2-bound / input frequency) (ratio); bacterial display of known human phosphotyrosine sites (pTyr-Var adds point mutants) read by sequencing; higher = stronger binding; tyrosines were phosphorylated by kinases first
Conditions: peptide library: pTyr-Var
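Further: displayed peptides selected on beads carrying the immobilized SH2 domain, with library peptides lacking any tyrosine serving as negative controls.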

Enrichment score, inactive:
B1 1.23
B2 1.36
B3 1.02
B4 0.83
B5 0.839
B6 0.791
B7 2.7
B8 0.701
B9 1.02
B10 1.42
B11 0.348
B12 0.318
B13 0.254
B14 1.27
B15 1.66
B16 1.56
B17 1.75
B18 1.55
B19 0.954

Molecular target: SHP2 C-SH2 domain wild-type
Assay: as above
Conditions: peptide library: pTyr-Var

Enrichment score, inactive:
B1 1.07
B2 1.3
B3 0.967
B4 0.961
B5 0.816
B6 0.626
B7 2.42
B8 0.618
B9 0.922
B10 1.2
B11 0.306
B12 0.291
B13 0.196
B14 1.39
B15 1.19
B16 1.47
B17 1.91
B18 1.89
B19 1.06

Molecular target: SHP2 N-SH2 domain L43F
Assay: as above
Conditions: peptide library: pTyr-Var

Enrichment score, inactive:
B1 1.1
B2 1.27
B3 1.2
B4 0.781
B5 1.08
B6 0.706
B7 2.56
B8 0.83
B9 1.16
B10 1.17
B11 0.243
B12 0.352
B13 0.327
B14 1.16
B15 1.76
B16 1.47
B17 1.56
B18 1.57
B19 0.916

Molecular target: SHP2 N-SH2 domain T42A
Assay: as above
Conditions: peptide library: pTyr-Var

Enrichment score, inactive:
B1 0.841
B2 0.989
B3 1.09
B4 0.8
B5 0.9
B6 0.568
B7 1.36
B8 0.819
B9 0.853
B10 0.847
B11 0.327
B12 0.354
B13 0.182
B14 1.19
B15 1.32
B16 1.42
B17 1.51
B18 1.45
B19 0.857

Molecular target: SHP2 N-SH2 domain T52S
Assay: as above
Conditions: peptide library: pTyr-Var

Enrichment score, inactive:
B1 1.14
B2 1.04
B3 0.889
B4 0.746
B5 0.97
B6 0.725
B7 1.26
B8 0.599
B9 1.17
B10 0.864
B11 0.343
B12 0.331
B13 0.226
B14 1.13
B15 1.37
B16 1.49
B17 2.08
B18 1.75
B19 1.01

Molecular target: SHP2 N-SH2 domain wild-type
Assay: as above
Conditions: peptide library: pTyr-Var

Enrichment score, inactive:
B1 1.17
B2 1.24
B3 1.02
B4 1.15
B5 1.1
B6 0.859
B7 2.13
B8 0.545
B9 1
B10 0.937
B11 0.222
B12 0.345
B13 0.244
B14 1.24
B15 1.7
B16 1.66
B17 1.9
B18 1.61
B19 1.14
